Source: PubChem BioAssay AID1240 (Sanford-Burnham Center for Chemical Genomics, 2008)
Among all 50,000 compounds or so, about 800 (1.6%) showed an effect of 50% or more. The list shows a part of the results.

target: Bcl-2-like protein 10 (Homo sapiens) (UniProt Q9HD36); experiment: Phenotype converters, Bcl-B/TR3 peptide binding displacement, primary biochemical FP (AID 1240); conditions: GST-Bcl-B / FITC-TR3 peptide fluorescence polarization; stronger effect = higher value; compound at 3.75 mg/L;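 also: 0% = Bcl-B with tracer peptide and DMSO and 100% = tracer peptide lacking Bcl-B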
Sequence of UniProt Q9HD36 (Q9HD36 whole entry, looked up): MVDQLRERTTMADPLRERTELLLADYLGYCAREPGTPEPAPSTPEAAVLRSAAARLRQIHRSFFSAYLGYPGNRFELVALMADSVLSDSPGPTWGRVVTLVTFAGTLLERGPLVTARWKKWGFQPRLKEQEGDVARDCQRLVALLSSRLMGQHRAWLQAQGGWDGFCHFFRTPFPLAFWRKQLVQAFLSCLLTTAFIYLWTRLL

Compound | displacement
CN(C)CCn1c2ccccc2c2nc3ccc([N+](=O)[O-])cc3cc21 | 22.9%
O=C(NCc1ccco1)c1ccc(-c2ccccc2)cc1 | 1.2%
CCN(CC)CCCOc1c(Cl)cccc1Cl | 1%
CCC(=O)Nc1sc2c(c1C(=O)Nc1ccc(OC)cc1)CCCC2 | 2%
O=C(NCC1c2ccccc2CCN1C(=O)c1ccccc1)c1ccccc1 (centres undefined) | -1.9%
O=C(O)c1cc(-c2ccccc2Cl)nc2ccccc12 | 0.7%
COc1cccc(OCCCCOc2ncnc3ccccc23)c1 | -10%
O=C1c2ccc(S(=O)(=O)c3ccc4c(c3)C(=O)N(Cc3cccnc3)C4=O)cc2C(=O)N1Cc1cccnc1 | 9.4%
O=C1/C(=C\c2cccnc2)CN(Cc2ccccc2)C/C1=C\c1cccnc1 | 1.8%
Cc1ccc([N+](=O)[O-])cc1Cc1c(F)cc(F)cc1F | 2.2%
O=C(N/N=C/c1cc(Cl)ccc1OCc1c(F)cccc1Cl)c1cccnc1 | -2%
O=C(Nc1ccc(C(F)(F)F)cc1)c1ccc2c(c1)C(=O)N(CC1CCCO1)C2=O (centres undefined) | -0.2%
C=CCc1c(C)nc(-c2ccccc2)nc1NN | -36.3%
COc1ccc(-c2nc3cc(NC(=O)COc4ccccc4[N+](=O)[O-])ccc3o2)cc1Cl | -8.2%
O=C1NC(=S)S/C1=C\c1ccccc1[N+](=O)[O-] | -4%
COc1c(Cl)cc(C(=O)Nc2cc(C)ccn2)cc1Cl | -5.8%
O=C(CCCN1C(=O)c2cccc3cccc(c23)C1=O)N1CCN(c2ccccc2)CC1 | 8.3%
CCN1C(=O)/C(=C\c2cc(Br)c(OCc3ccccc3F)c(OC)c2)SC1=S | 22.5%
COc1ccc([N+](=O)[O-])cc1NCc1cccnc1 | 3.1%
COc1cccc2c1NC(c1ccc(F)cc1)C1CC=CC21 (centres undefined) | 17.6%
Nc1nnc(SCC(=O)N2c3ccccc3CCc3ccccc32)s1 | 8.8%
CCOc1ccccc1NC1=C(Cl)C(=O)N(c2ccc(Br)cc2)C1=O | 9.1%

Compound | displacement
Cc1ccc(C(=O)Nc2ccc(C(=O)OCC(C)C)cc2)cc1[N+](=O)[O-] | -5.3%
Cc1onc(-c2c(Cl)cccc2Cl)c1C(=O)N1CCCC1 | 11.7%
C=COCCNC(=O)C(=O)Nc1ccc(CC)cc1 | 11.9%
Cc1ccc(C(=O)Nc2cccc(NC(=O)c3cccc(Cl)c3)c2)cc1 | -0.2%
Cc1ccc(NC(=O)/C(=C\c2ccco2)NC(=O)c2ccccc2I)cc1 | 3.4%
CCOC(=O)C1=C(C)NC(=O)NC1c1cc(Br)c(O)c(OC)c1 (centres undefined) | 0.6%
Cc1cc(C(=O)N/N=C/c2c(Cl)cccc2Cl)n[nH]1 | -5.4%
COc1ccc(S(=O)(=O)N2CCN(Cc3ccccc3C(F)(F)F)CC2)cc1 | 8.1%
CC1=NNC(=O)C1CCC(=O)N/N=C/C(Br)=C/c1ccccc1 (centres undefined) | -8.4%
COc1ccc(N2C(=O)C3C(c4ccccc4Cl)OC4(C(=O)c5ccccc5C4=O)C3C2=O)c(OC)c1 (centres undefined) | 12.5%
O=C(CN1C(=O)/C(=C/c2ccccc2)SC1=S)Nc1cc([N+](=O)[O-])ccc1O | 9.6%
O=C(/C=C/c1ccccc1)N1CCN(c2ccc(Cl)cc2)CC1 | -9.3%
COc1ccc(-c2cc(C(=O)NCc3ccc(C)cc3)c3ccccc3n2)cc1 | -4.4%
CCOc1cc(/C=C2/SC(N)=NC2=O)ccc1OCc1ccc(F)cc1 | -15.9%
Cc1nc(CN2C(=O)c3ccccc3C2=O)cs1 | -3.5%
CCN1C(=O)/C(=C/c2c(F)cccc2Cl)SC1=S | 8.8%
C=CCN1C(=O)OC2(CCCCC2)C1(C)O (centres undefined) | -2.5%
Cc1nn(C(CC(=O)O)C(=O)O)c(C)c1I (centres undefined) | -2.7%
COc1ccc(/C=C/C(=O)C2(C)CCCCC2)cc1 | -6.5%
CCOC(=O)c1c(NC(=O)COC(=O)C(CCSC)NC(C)=O)sc2c1CCCC2 (centres undefined) | 12.2%
CCOC(=O)c1ccc(NC(=O)CN(c2cccc(C(F)(F)F)c2)S(C)(=O)=O)cc1 | -6.2%
CCOC(=O)c1c[nH]n(-c2nc(-c3ccccc3)cs2)c1=O | 7.3%

Compound | displacement
Cc1ccc(C2(c3ccc(C)cc3)CC2C(=O)Nc2ccccc2[N+](=O)[O-])cc1 (centres undefined) | 11.2%
O=C(NCCOc1ccccc1)c1cccc(C(=O)NCCOc2ccccc2)c1 | 8.1%
COC(=O)c1ccc(COc2cc3oc(=O)cc(-c4ccccc4)c3cc2Cl)cc1 | 8.1%
CCOC(=O)C(=CNc1ccccc1O)C(=O)OCC | -0.7%
O=C(O)CCCCCN1C(=O)C(=O)/C(=C(/O)c2ccc(F)cc2)C1c1ccc(F)cc1 (centres undefined) | -1.5%
C/C(=N/NC(=O)c1ccccc1)c1ccc2c3c(cccc13)CC2 | -11.5%
Cc1ccc(NC(=O)C2CC(=O)N(c3ccc(Br)cc3)C2)cc1Cl (centres undefined) | 9.4%
CCOc1cc(/C=C2/C=C(c3ccc(OC)cc3)OC2=O)cc(I)c1OC | -6%
O=C(Nc1sc2c(c1C(=O)O)CCCCC2)c1ccccc1F | -9.2%
Cc1cc(/C=N/NC(N)=S)c(C)n1C1CCCCC1 | -10.3%
COc1ccccc1Cc1noc(-c2ccc(Cl)cc2)n1 | 4.9%
O=C(Nc1ccncc1)c1ccc2c(c1)OCCO2 | 12.1%
C#CCOc1ccc(C2C(C(=O)OC)=C(C)NC3=C2C(=O)c2ccccc23)cc1 (centres undefined) | 4.9%
Cc1cc(=O)[nH]c(N/N=C/c2ccccc2[N+](=O)[O-])n1 | -6.5%
Cc1ccc(-c2cc3nc(C)cc(C)n3n2)cc1 | 8.2%
CC(C)COc1ccc(C(=O)NCCc2c[nH]c3ccccc23)cc1 | 0.1%
O=C(COc1ccc(Cl)cc1)NNC(=O)C(=O)N1CCCCC1 | -8.4%
COc1ccc(NC(=O)c2sc3cc(C)ccc3c2Cl)cc1 | 3.5%
CC(C)(C)c1ccc(OCC(=O)NNC(=O)C(=O)N2CCCC2)cc1 | -20%
O=C(Nc1ccc(Cc2ccncc2)cc1)c1cccc([N+](=O)[O-])c1 | 13.6%
CCOc1ccc(C(=O)Nc2ccc3oc(-c4ccc(OC)c(Cl)c4)nc3c2)cc1 | 4.6%
COC(=O)C1=C(C)N(c2cccc(C)c2)C(=O)/C1=C\c1ccc(O)cc1 | -3.2%

Compound | displacement
O=C(O)C(Cc1ccccc1)N1C(=O)/C(=C/c2ccccc2Cl)SC1=S (centres undefined) | 5.2%
CC(C(=O)NCCc1ccccc1)N1C(=O)c2ccccc2C1=O (centres undefined) | 3.3%
O=C1C(=O)N(c2cccnc2)C(c2ccc([N+](=O)[O-])cc2)/C1=C(\O)c1ccc(Cl)cc1 (centres undefined) | -12.7%
COc1ccc(CN2CCN(C(=O)c3ccc(F)cc3)CC2)cc1OCc1ccccc1 | 12.7%
CC1=C(C(=O)OC2CCCC2)C(c2ccc(I)cc2)C2=C(CC(C)(C)CC2=O)N1 (centres undefined) | -2.3%
CC(C)C(=O)NNC(=O)COc1ccc(Cl)cc1 | -6.7%
CCOc1ccccc1NC(=O)c1c(NC(=O)c2ccco2)sc2c1CCC(C)C2 (centres undefined) | -7.1%
CC(=O)NS(=O)(=O)c1ccc(NC(=O)c2ccc([N+](=O)[O-])cc2)cc1 | -13.3%
CC(C)(C)C1=CC(=Nc2ccc3c(c2)OCCO3)C=C(C(C)(C)C)C1=O | -0.3%
CCc1ccc(N2CC(C(=O)Nc3ccc(Cl)cc3Cl)CC2=O)cc1 (centres undefined) | 9.5%
CC1=C(C(=O)OCC(Cl)(Cl)Cl)C(c2ccccc2F)NC(=O)N1 (centres undefined) | 7.8%
CCOc1ccccc1NC(=O)c1c(NC(=O)Cc2ccc(OC)cc2)sc2c1CCC(C)C2 (centres undefined) | -3.9%
C=CCNCCCCOc1cc(C)c(Cl)c(C)c1 | 4.8%
O=C(Nc1ccc(I)cc1Cl)C(c1ccccc1)c1ccccc1 | -5.2%
Cc1ccc(S(=O)(=O)N/N=C/c2ccccc2OS(=O)(=O)c2ccc([N+](=O)[O-])cc2)cc1 | -9.6%
COc1ccc(Br)cc1CN1CCN(Cc2ccncc2)CC1 | -16.3%
CCOc1ccc(NC(=O)CN(c2ccc(Cl)cc2)S(C)(=O)=O)cc1 | 2.8%
COc1ccc(/C(C)=N\NC(=O)c2ccc([N+](=O)[O-])cc2)cc1OC | 6.7%
O=C(O)CCN1C(=O)/C(=C/c2cccc3ccccc23)SC1=S | 22.4%
O=[N+]([O-])c1ccc(Oc2ccc(S(=O)(=O)Nc3ccccn3)cc2)cc1 | 1.7%
Cn1c(=O)c2c(ncn2CC(=O)N2CCc3ccccc3C2)n(C)c1=O | -1%
Cc1cc([N+](=O)[O-])ccc1-c1ccc(CO)o1 | 12.9%

Compound | displacement
CC12c3ccccc3C(c3ccccc31)C1C(=O)N(Cc3cccnc3)C(=O)C12 (centres undefined) | -9.9%
O=c1oc(-c2ccco2)nc2ccc(Cl)cc12 | 13.6%
S=C(c1cccc(OCc2ccccc2)c1)N1CCOCC1 | 11%
CCN(CCN)c1ccc2c(=O)[nH][nH]c(=O)c2c1 | 6.8%
Cc1ccc(OCCCCN2CCC(C)CC2)cc1C | -7.7%
O=C(CN(c1ccccc1)S(=O)(=O)c1ccccc1)NCc1ccncc1 | 12.9%
COc1cccc(C(=O)Nc2ccc(Br)cc2C(=O)O)c1 | 13.1%
CCc1ccc(-c2csc(N3N=C(c4cccs4)CC3c3ccc(F)cc3)n2)cc1 (centres undefined) | 0.2%
CC(C)c1ccc(NC(=O)C(=O)NCCCO)cc1 | -10.4%
O=C(COc1ccc(Cl)cc1)Nc1nc(-c2ccc(Cl)cc2)cs1 | 8.6%
CN(C1=NC(=O)/C(=C\c2ccc(F)cc2)S1)c1ccc(O)cc1 | 11.4%
COC(=O)c1ccc(-c2ccc(/C=C3/SC(=S)N(Cc4ccccc4)C3=O)o2)cc1 | 7.1%
Cc1ccc(C2CC(C(F)(F)F)n3nc(C(=O)Nc4ccc(C(C)O)cc4)cc3N2)cc1 (centres undefined) | 1.8%
OCC1(CO)COC(c2ccccc2)=N1 | 9%
Cc1cc(Cl)ccc1OCC(=O)Nc1ccccc1CO | 8.1%
CCOC(=O)C1=NN(C(=O)Cc2ccccc2)C(O)(c2ccc(Cl)cc2)C1 (centres undefined) | -6.4%
Brc1ccc2c(c1)Nc1nc3nonc3nc1N2 | 3.9%
C=C(C)c1cccc(C(C)(C)NC(=O)N2CCc3ccccc32)c1 | -1.6%
CS(=O)(=O)N(Cc1ccc(Cl)cc1)c1ccc(C(=O)Nc2ccc(Cl)cc2)cc1 | -7.1%
Oc1ccccc1C1OCC2(CO1)COC(c1ccccc1O)OC2 (centres undefined) | 3%
CCSc1nc2ccc(N)cc2s1 | 2.8%
